Measured values as given in the supplement of paper PMC4967469.
IC50 is the fitted dose that halves viability relative to control wells, and lower means more sensitive; where the fit passes the top or lowest dose, that dose stands as a limit. AUC sums up the same curve from the lowest dose to the 256-fold higher top dose: 1 means no effect, lower means more sensitive. For some of these results: A top dose marked as inferred was derived from the fitted curves, not read from the paper. For some of these results: Drugs with an entry number were screened twice under separate entries, and the two screens often disagree.

How the values were obtained:
Experiment in all cases: Viability of human cancer cell lines after 72 h of drug (GDSC screen)
CP466722 = compound: COc1cc2ncnc(-n3nc(-c4ccccn4)nc3N)c2cc1OC [CP466722]; conditions: top dose 16 µM; top dose inferred
Experimental: (§1)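 Human cancer cell lines in 384-well plates, medium with 10% serum, drug for 72 h over a 256-fold dose range (nine 2-fold or five 4-fold steps up to the top dose). Adherent lines were fixed and stained with the nucleic acid dye Syto60, suspension lines read with resazurin; signal relative to control wells, capped at 0 and 100%. One two-parameter sigmoid per drug and line, fitted in a mixed model over all curves with the slope shared within a line.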

QL-X-138 = compound: C=CC(=O)Nc1cc(-n2c(=O)ccc3cnc4ccc(-c5cn[nH]c5)cc4c32)ccc1C [QL-X-138]; conditions: top dose 10.24 µM; top dose inferred
Experimental: as §1

CMK = compound: Cc1ccc(-c2c(C(=O)CCl)n(CCCO)c3ncnc(N)c23)cc1 [CMK]; conditions: top dose 4 µM; top dose inferred
Experimental: as §1

MPS-1-IN-1 = compound: COc1cc(N2CCC(O)CC2)ccc1Nc1cc(Nc2ccccc2S(=O)(=O)C(C)C)c2cc[nH]c2n1 [MPS-1-IN-1]; conditions: top dose 20 µM; top dose inferred
Experimental: as §1

(5Z)-7-Oxozeaenol = compound: COc1cc(O)c2c(c1)/C=C/C[C@H](O)[C@H](O)C(=O)/C=C\C[C@H](C)OC2=O [(5Z)-7-Oxozeaenol]; conditions: top dose 10 µM; top dose inferred
Experimental: as §1

GSK269962A = compound: CCn1c(-c2nonc2N)nc2cnc(Oc3cccc(NC(=O)c4ccc(OCCN5CCOCC5)cc4)c3)cc21 [GSK269962A]; conditions: top dose inferred
Experimental: as §1

Thapsigargin = compound: C/C=C(/C)C(=O)O[C@H]1C(C)=C2[C@H]([C@@H]1OC(=O)CCCCCCC)[C@@](C)(OC(C)=O)C[C@H](OC(=O)CCC)[C@@]1(O)[C@H]2OC(=O)[C@@]1(C)O [Thapsigargin]; conditions: top dose 0.512 µM; top dose inferred
Experimental: as §1

Zibotentan = compound: COc1nc(C)cnc1NS(=O)(=O)c1cccnc1-c1ccc(-c2nnco2)cc1 [Zibotentan]; conditions: top dose 20 µM; top dose inferred
Experimental: as §1

ABT-869 = compound: Cc1ccc(F)c(NC(=O)Nc2ccc(-c3cccc4[nH]nc(N)c34)cc2)c1 [ABT-869]; conditions: top dose 1.024 µM; top dose inferred
Experimental: as §1

CHIR-99021 = compound: Cc1cnc(-c2cnc(NCCNc3ccc(C#N)cn3)nc2-c2ccc(Cl)cc2Cl)[nH]1 [CHIR-99021]
Experimental: as §1

KU-55933 = compound: O=c1cc(-c2cccc3c2Sc2ccccc2S3)oc(N2CCOCC2)c1 [KU-55933]; conditions: top dose 10 µM
Experimental: as §1

[1] = top dose 2.5 µM, screen: GDSC drug entry 127
[2] = top dose 5 µM, screen: GDSC drug entry 1192
[3] = top dose 2.56 µM, screen: GDSC drug entry 154
[4] = top dose 10 µM, screen: GDSC drug entry 1241, top dose inferred

Cell Line	AUC (CP466722)	IC50 (CP466722) [µM]	AUC (QL-X-138)	IC50 (QL-X-138) [µM]	AUC (CMK)	IC50 (CMK) [µM]	AUC (MPS-1-IN-1)	IC50 (MPS-1-IN-1) [µM]	AUC ((5Z)-7-Oxozeaenol)	IC50 ((5Z)-7-Oxozeaenol) [µM]	AUC (GSK269962A; [1])	IC50 (GSK269962A; [1]) [µM]	AUC (GSK269962A; [2])	IC50 (GSK269962A; [2]) [µM]	AUC (Thapsigargin)	IC50 (Thapsigargin) [µM]	AUC (Zibotentan)	IC50 (Zibotentan) [µM]	AUC (ABT-869)	IC50 (ABT-869) [µM]	AUC (CHIR-99021; [3])	IC50 (CHIR-99021; [3]) [µM]	AUC (CHIR-99021; [4])	IC50 (CHIR-99021; [4]) [µM]	AUC (KU-55933)	IC50 (KU-55933) [µM]
Hs-445 (Hodgkin lymphoma, suspension)	0.685	3.15	0.653	1.64	0.96	> 4	0.88	18.1	0.62	1.3	0.975	> 2.5	0.963	> 5	0.989	> 0.512	0.988	> 20	0.982	> 1.02	0.989	> 2.56	0.988	> 10		
IST-MES1 (mesothelioma, adherent)	0.9	> 16	0.936	> 10.2	0.862	3.46	0.943	> 20	0.743	3.13	0.981	> 2.5	0.924	> 5	0.635	0.076	0.985	> 20	0.977	> 1.02	0.934	> 2.56	0.864	8.84		
KALS-1 (glioma, adherent)	0.977	> 16	0.673	2.34	0.822	3.56	0.955	> 20	0.693	2.68	0.936	> 2.5	0.913	> 5	0.264	0.00518	0.973	> 20	0.969	> 1.02	0.96	> 2.56	0.888	> 10		
SKM-1 (haematopoietic neoplasm, suspension)					0.956	> 4			0.28	0.138	0.96	> 2.5	0.938	> 5									0.982	> 10	0.774	4.35
SW872 (soft tissue, adherent)	0.907	> 16	0.882	9.05	0.949	> 4	0.952	> 20	0.11	0.0408	0.709	0.567	0.646	0.758	0.284	0.00839	0.988	> 20	0.989	> 1.02	0.959	> 2.56	0.829	5.43		
TGBC24TKB (biliary tract, adherent)	0.874	13.8	0.94	> 10.2	0.956	> 4	0.772	7.21	0.885	9.75			0.981	> 5	0.106	< 0.002	0.988	> 20	0.988	> 1.02	0.951	> 2.56	0.982	> 10		
